From the supplement of paper PMC11098506
± gives the standard deviation of the averaged measurements. The list shows a part of the results.

B1: VDAC2; numbered along this chain (parent)
chain: MATHGQTCARPMCIPPSYADLGKAARDIFNKGFGFGLVKLDVKTKSCSGVEFSTSGSSNTDTGKVTGTLETKYKWCEYGLTFTEKWNTDNTLGTEIAIEDQICQGLKLTFDTTFSPNTGKKSGKIKSSYKRECINLGCDVDFDFAGPAIHGSAVFGYEGWLAGYQMTFDSAKSKLTRNNFAVGYRTGDFQLHTNVNDGTEFGGSIYQKVCEDLDTSVNLAWTSGTNCTRFGIAAKYQLDPTASISAKVNNSSLIGVGYTQTLRPGVKLTLSALVDGKSINAGGHKVGLALELEA

Variants of: B1
Test: log2 fold difference of barcode abundance, GFP-BAK-high vs GFP-BAK-low sorted fraction (log2 ratio); higher = VDAC2 variant stabilises more GFP-BAK at mitochondria
Settings: with BAK1 (mouse, GFP-tagged), Mcl1-/- Bax-/- Bak-/- Vdac2-/- MEF + GFP-mBAK
Description: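 Deep mutational scan of human VDAC2 (FLAG-tagged) with single amino acid substitutions at positions Q165–F180 (β10–11 loop), each barcoded clone expressed by retrovirus in Mcl1/Bax/Bak/Vdac2-deficient MEFs that also express GFP-tagged mouse BAK. Cells were sorted into GFP-high and GFP-low fractions and barcodes counted by Illumina sequencing. The score is log2(CPM) in GFP-BAK-high minus log2(CPM) in GFP-BAK-low, per barcode; barcodes of the same variant are averaged. It reports BAK recruitment and stabilisation at the mitochondrial outer membrane.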
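Further: sorting relied on GFP fluorescence, which stays low in these cells lacking VDAC2 and climbs sharply once wild-type VDAC2 is expressed.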

Row | Variant | log2 fold difference
1 | MATHGQTCARPMCIPPSYADLGKAARDIFNKGFGFGLVKLDVKTKSCSGVEFSTSGSSNTDTGKVTGTLETKYKWCEYGLTFTEKWNTDNTLGTEIAIEDQICQGLKLTFDTTFSPNTGKKSGKIKSSYKRECINLGCDVDFDFAGPAIHGSAVFGYEGWLAGYQMTFDRAKSKLTRNNFAVGYRTGDFQLHTNVNDGTEFGGSIYQKVCEDLDTSVNLAWTSGTNCTRFGIAAKYQLDPTASISAKVNNSSLIGVGYTQTLRPGVKLTLSALVDGKSINAGGHKVGLALELEA [S170R] | -0.591 ± 0.96
2 | MATHGQTCARPMCIPPSYADLGKAARDIFNKGFGFGLVKLDVKTKSCSGVEFSTSGSSNTDTGKVTGTLETKYKWCEYGLTFTEKWNTDNTLGTEIAIEDQICQGLKLTFDTTFSPNTGKKSGKIKSSYKRECINLGCDVDFDFAGPAIHGSAVFGYEGWLAGYQMTFDSVKSKLTRNNFAVGYRTGDFQLHTNVNDGTEFGGSIYQKVCEDLDTSVNLAWTSGTNCTRFGIAAKYQLDPTASISAKVNNSSLIGVGYTQTLRPGVKLTLSALVDGKSINAGGHKVGLALELEA [A171V] | 0.962 ± 0.81
3 | MATHGQTCARPMCIPPSYADLGKAARDIFNKGFGFGLVKLDVKTKSCSGVEFSTSGSSNTDTGKVTGTLETKYKWCEYGLTFTEKWNTDNTLGTEIAIEDQICQGLKLTFDTTFSPNTGKKSGKIKSSYKRECINLGCDVDFDFAGPAIHGSAVFGYEGWLAGYQMTFDSAKSKLTENNFAVGYRTGDFQLHTNVNDGTEFGGSIYQKVCEDLDTSVNLAWTSGTNCTRFGIAAKYQLDPTASISAKVNNSSLIGVGYTQTLRPGVKLTLSALVDGKSINAGGHKVGLALELEA [R177E] | 0.394 ± 0.88
4 | MATHGQTCARPMCIPPSYADLGKAARDIFNKGFGFGLVKLDVKTKSCSGVEFSTSGSSNTDTGKVTGTLETKYKWCEYGLTFTEKWNTDNTLGTEIAIEDQICQGLKLTFDTTFSPNTGKKSGKIKSSYKRECINLGCDVDFDFAGPAIHGSAVFGYEGWLAGYQMTFDSAKSKLTRNTFAVGYRTGDFQLHTNVNDGTEFGGSIYQKVCEDLDTSVNLAWTSGTNCTRFGIAAKYQLDPTASISAKVNNSSLIGVGYTQTLRPGVKLTLSALVDGKSINAGGHKVGLALELEA [N179T] | 0.657 ± 1.1
5 | MATHGQTCARPMCIPPSYADLGKAARDIFNKGFGFGLVKLDVKTKSCSGVEFSTSGSSNTDTGKVTGTLETKYKWCEYGLTFTEKWNTDNTLGTEIAIEDQICQGLKLTFDTTFSPNTGKKSGKIKSSYKRECINLGCDVDFDFAGPAIHGSAVFGYEGWLAGYQMTFDSAKSKLGRNNFAVGYRTGDFQLHTNVNDGTEFGGSIYQKVCEDLDTSVNLAWTSGTNCTRFGIAAKYQLDPTASISAKVNNSSLIGVGYTQTLRPGVKLTLSALVDGKSINAGGHKVGLALELEA [T176G] | 0.235 ± 1.1
6 | MATHGQTCARPMCIPPSYADLGKAARDIFNKGFGFGLVKLDVKTKSCSGVEFSTSGSSNTDTGKVTGTLETKYKWCEYGLTFTEKWNTDNTLGTEIAIEDQICQGLKLTFDTTFSPNTGKKSGKIKSSYKRECINLGCDVDFDFAGPAIHGSAVFGYEGWLAGYQMTFDSAKSKLTKNNFAVGYRTGDFQLHTNVNDGTEFGGSIYQKVCEDLDTSVNLAWTSGTNCTRFGIAAKYQLDPTASISAKVNNSSLIGVGYTQTLRPGVKLTLSALVDGKSINAGGHKVGLALELEA [R177K] | 0.193 ± 0.81
7 | MATHGQTCARPMCIPPSYADLGKAARDIFNKGFGFGLVKLDVKTKSCSGVEFSTSGSSNTDTGKVTGTLETKYKWCEYGLTFTEKWNTDNTLGTEIAIEDQICQGLKLTFDTTFSPNTGKKSGKIKSSYKRECINLGCDVDFDFAGPAIHGSAVFGYEGWLAGYQMTFDSAKSKLTRNDFAVGYRTGDFQLHTNVNDGTEFGGSIYQKVCEDLDTSVNLAWTSGTNCTRFGIAAKYQLDPTASISAKVNNSSLIGVGYTQTLRPGVKLTLSALVDGKSINAGGHKVGLALELEA [N179D] | -0.056 ± 0.84
8 | MATHGQTCARPMCIPPSYADLGKAARDIFNKGFGFGLVKLDVKTKSCSGVEFSTSGSSNTDTGKVTGTLETKYKWCEYGLTFTEKWNTDNTLGTEIAIEDQICQGLKLTFDTTFSPNTGKKSGKIKSSYKRECINLGCDVDFDFAGPAIHGSAVFGYEGWLAGYQMTFDSAKSKLTPNNFAVGYRTGDFQLHTNVNDGTEFGGSIYQKVCEDLDTSVNLAWTSGTNCTRFGIAAKYQLDPTASISAKVNNSSLIGVGYTQTLRPGVKLTLSALVDGKSINAGGHKVGLALELEA [R177P] | -0.62 ± 0.77
9 | MATHGQTCARPMCIPPSYADLGKAARDIFNKGFGFGLVKLDVKTKSCSGVEFSTSGSSNTDTGKVTGTLETKYKWCEYGLTFTEKWNTDNTLGTEIAIEDQICQGLKLTFDTTFSPNTGKKSGKIKSSYKRECINLGCDVDFDFAGPAIHGSAVFGYEGWLAGYQQTFDSAKSKLTRNNFAVGYRTGDFQLHTNVNDGTEFGGSIYQKVCEDLDTSVNLAWTSGTNCTRFGIAAKYQLDPTASISAKVNNSSLIGVGYTQTLRPGVKLTLSALVDGKSINAGGHKVGLALELEA [M166Q] | -0.373 ± 0.75
10 | MATHGQTCARPMCIPPSYADLGKAARDIFNKGFGFGLVKLDVKTKSCSGVEFSTSGSSNTDTGKVTGTLETKYKWCEYGLTFTEKWNTDNTLGTEIAIEDQICQGLKLTFDTTFSPNTGKKSGKIKSSYKRECINLGCDVDFDFAGPAIHGSAVFGYEGWLAGYQMTEDSAKSKLTRNNFAVGYRTGDFQLHTNVNDGTEFGGSIYQKVCEDLDTSVNLAWTSGTNCTRFGIAAKYQLDPTASISAKVNNSSLIGVGYTQTLRPGVKLTLSALVDGKSINAGGHKVGLALELEA [F168E] | -0.35 ± 1
